This is one part of the list. Rule as the data show it: active = 3.2 or more and inactive = the rest. Most of these values are background signal.
Target: SHP2 C-SH2 domain E139D
Test: enrichment score (SH2-bound / input frequency) (ratio); bacterial display of known human phosphotyrosine sites (pTyr-Var adds point mutants) read by sequencing; higher = stronger binding; tyrosines were phosphorylated by kinases first
Conditions: peptide library: pTyr-Var
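Also: displayed peptides selected on beads carrying the immobilized SH2 domain, with library peptides lacking any tyrosine serving as negative controls.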

Enrichment score, inactive:
KMKGDYYCYLA [YWHAG_Y130_R132C] 1.06
TGFRPYVCPFD [YY1_Y383_D380Y_YF] 1.2
NGQAVYAACQT [XDH_Y1092] 0.705
GADDSYFTVRS [ZAP70_Y492_A495V_YF] 0.747
EAAFVYVISSA [WNT4_Y113_A114V] 0.796
KIDAKYKKKIE [WDR19_Y1230] 0.719
MKGDYYRSLAE [YWHAG_Y131_Y133S] 0.524
QAEEWYFGKMG [YES1_Y159] 0.878
WAMPAYNRSKL [WWOX_Y293_L291P] 0.655
NPQKSYLIRLY [WAS_Y83_F84L] 1.53
HVKHNYECLVY [XRCC5_Y416_I412V] 1.49
FSALDYKIFFF [WDPCP_Y210_L205F_YF] 0.906
NPQKSYFIHLY [WAS_Y83_R86H] 1.98
LLSVAYKNVVR [YWHAZ_Y48_G53R] 1.12
ATKNDYWAMLA [WWOX_Y287_P282A] 0.805
ADRNHYRRYPR [YBX1_Y145] 0.267
LEPGIYIPEDD [XPNPEP3_Y455_I450L] 0.281
MKGEYYRYLAE [YWHAG_Y131_D129E] 0.951

Target: SHP2 C-SH2 domain wild-type
Test: as above
Conditions: peptide library: pTyr-Var

Enrichment score, inactive:
KMKGDYYCYLA [YWHAG_Y130_R132C] 0.928
TGFRPYVCPFD [YY1_Y383_D380Y_YF] 0.977
NGQAVYAACQT [XDH_Y1092] 0.72
GADDSYFTVRS [ZAP70_Y492_A495V_YF] 0.728
EAAFVYVISSA [WNT4_Y113_A114V] 0.885
KIDAKYKKKIE [WDR19_Y1230] 0.699
MKGDYYRSLAE [YWHAG_Y131_Y133S] 0.588
QAEEWYFGKMG [YES1_Y159] 1.28
WAMPAYNRSKL [WWOX_Y293_L291P] 0.349
NPQKSYLIRLY [WAS_Y83_F84L] 1.31
HVKHNYECLVY [XRCC5_Y416_I412V] 1.39
FSALDYKIFFF [WDPCP_Y210_L205F_YF] 1.08
NPQKSYFIHLY [WAS_Y83_R86H] 1.93
LLSVAYKNVVR [YWHAZ_Y48_G53R] 1.13
ATKNDYWAMLA [WWOX_Y287_P282A] 0.813
ADRNHYRRYPR [YBX1_Y145] 0.268
LEPGIYIPEDD [XPNPEP3_Y455_I450L] 1.12
MKGEYYRYLAE [YWHAG_Y131_D129E] 0.791

Target: SHP2 N-SH2 domain L43F
Test: as above
Conditions: peptide library: pTyr-Var

Enrichment score, inactive:
KMKGDYYCYLA [YWHAG_Y130_R132C] 0.807
TGFRPYVCPFD [YY1_Y383_D380Y_YF] 0.52
NGQAVYAACQT [XDH_Y1092] 0.45
GADDSYFTVRS [ZAP70_Y492_A495V_YF] 0.711
EAAFVYVISSA [WNT4_Y113_A114V] 0.713
KIDAKYKKKIE [WDR19_Y1230] 0.808
MKGDYYRSLAE [YWHAG_Y131_Y133S] 0.666
QAEEWYFGKMG [YES1_Y159] 0.724
WAMPAYNRSKL [WWOX_Y293_L291P] 0.355
NPQKSYLIRLY [WAS_Y83_F84L] 1.38
HVKHNYECLVY [XRCC5_Y416_I412V] 1.2
FSALDYKIFFF [WDPCP_Y210_L205F_YF] 1.06
NPQKSYFIHLY [WAS_Y83_R86H] 2.42
LLSVAYKNVVR [YWHAZ_Y48_G53R] 1.22
ATKNDYWAMLA [WWOX_Y287_P282A] 0.523
ADRNHYRRYPR [YBX1_Y145] 0.246
LEPGIYIPEDD [XPNPEP3_Y455_I450L] 0.784
MKGEYYRYLAE [YWHAG_Y131_D129E] 0.848

Target: SHP2 N-SH2 domain T42A
Test: as above
Conditions: peptide library: pTyr-Var

Enrichment score, inactive:
KMKGDYYCYLA [YWHAG_Y130_R132C] 0.66
TGFRPYVCPFD [YY1_Y383_D380Y_YF] 0.31
NGQAVYAACQT [XDH_Y1092] 0.467
GADDSYFTVRS [ZAP70_Y492_A495V_YF] 0.605
EAAFVYVISSA [WNT4_Y113_A114V] 0.846
KIDAKYKKKIE [WDR19_Y1230] 0.593
MKGDYYRSLAE [YWHAG_Y131_Y133S] 0.509
QAEEWYFGKMG [YES1_Y159] 0.892
WAMPAYNRSKL [WWOX_Y293_L291P] 0.374
NPQKSYLIRLY [WAS_Y83_F84L] 1.25
HVKHNYECLVY [XRCC5_Y416_I412V] 1.03
FSALDYKIFFF [WDPCP_Y210_L205F_YF] 0.687
NPQKSYFIHLY [WAS_Y83_R86H] 2.13
LLSVAYKNVVR [YWHAZ_Y48_G53R] 0.673
ATKNDYWAMLA [WWOX_Y287_P282A] 0.673
ADRNHYRRYPR [YBX1_Y145] 0.294
LEPGIYIPEDD [XPNPEP3_Y455_I450L] 0.849
MKGEYYRYLAE [YWHAG_Y131_D129E] 0.539

Target: SHP2 N-SH2 domain T52S
Test: as above
Conditions: peptide library: pTyr-Var

Enrichment score, inactive:
KMKGDYYCYLA [YWHAG_Y130_R132C] 1.15
TGFRPYVCPFD [YY1_Y383_D380Y_YF] 0.61
NGQAVYAACQT [XDH_Y1092] 0.576
GADDSYFTVRS [ZAP70_Y492_A495V_YF] 0.611
EAAFVYVISSA [WNT4_Y113_A114V] 0.753
KIDAKYKKKIE [WDR19_Y1230] 0.472
MKGDYYRSLAE [YWHAG_Y131_Y133S] 0.506
QAEEWYFGKMG [YES1_Y159] 0.82
WAMPAYNRSKL [WWOX_Y293_L291P] 0.417
NPQKSYLIRLY [WAS_Y83_F84L] 1.55
HVKHNYECLVY [XRCC5_Y416_I412V] 1.29
FSALDYKIFFF [WDPCP_Y210_L205F_YF] 1.06
NPQKSYFIHLY [WAS_Y83_R86H] 2.25
LLSVAYKNVVR [YWHAZ_Y48_G53R] 0.806
ATKNDYWAMLA [WWOX_Y287_P282A] 0.668
ADRNHYRRYPR [YBX1_Y145] 0.267
LEPGIYIPEDD [XPNPEP3_Y455_I450L] 1.14
MKGEYYRYLAE [YWHAG_Y131_D129E] 0.667

Target: SHP2 N-SH2 domain wild-type
Test: as above
Conditions: peptide library: pTyr-Var

Enrichment score, inactive:
KMKGDYYCYLA [YWHAG_Y130_R132C] 1.12
TGFRPYVCPFD [YY1_Y383_D380Y_YF] 1.23
NGQAVYAACQT [XDH_Y1092] 0.596
GADDSYFTVRS [ZAP70_Y492_A495V_YF] 0.914
EAAFVYVISSA [WNT4_Y113_A114V] 0.929
KIDAKYKKKIE [WDR19_Y1230] 0.628
MKGDYYRSLAE [YWHAG_Y131_Y133S] 0.578
QAEEWYFGKMG [YES1_Y159] 1.08
WAMPAYNRSKL [WWOX_Y293_L291P] 0.399
NPQKSYLIRLY [WAS_Y83_F84L] 1.47
HVKHNYECLVY [XRCC5_Y416_I412V] 1.82
FSALDYKIFFF [WDPCP_Y210_L205F_YF] 1.32
NPQKSYFIHLY [WAS_Y83_R86H] 2.03
LLSVAYKNVVR [YWHAZ_Y48_G53R] 0.911
ATKNDYWAMLA [WWOX_Y287_P282A] 0.851
ADRNHYRRYPR [YBX1_Y145] 0.318
LEPGIYIPEDD [XPNPEP3_Y455_I450L] 1
MKGEYYRYLAE [YWHAG_Y131_D129E] 0.838

Reference: the supplement of paper PMC10369915
